About 60 (0.1%) of roughly 46,000 compounds were called active. Not shown: some 3% with an inconclusive outcome. Calls come from the whole dose curve; as a rule, active = well fitted inhibition curve with a large enough effect; inconclusive = small, poorly fitted or top-dose-only effect; inactive = no such curve, though single readings can be large or run the other way. The list shows a part of the results.
Experiment: Primary qHTS assay for Inhibitors of ovarian cancer metastasis using an organotypic tumor microenvironment (TME) model.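 For activity change, negative = inhibition: plate controls were DMSO wells for no effect and tomatine positive control wells for full effect.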 Note: nearly all actives have a fitted effect of over 65% in size.
Details: SKOV3ip1-GFP adhesion/invasion on 3D omental model, fluorescence; series mostly up to 45.8 µM; activity change, negative = inhibition: at the top concentration
How it was run: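 Adhesion/invasion was scored as fixed GFP-labeled SKOV3ip1 cell counts (488/509 nm), normalized to DMSO and tomatine controls. Cancer cells in serum-free medium, with four compound doses (0.36-46 umol/L), sat 2 hr at RT then 16 hr at 37 C on a 48 hr fibroblast/mesothelial/ECM culture.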

Activity change, negative = inhibition, inactive:
COc1ccc(NC(=O)c2c(NCc3cccs3)sc3c2CCC(C)C3)c(OC)c1 (stereo not drawn) -1.86%
CC(=O)N1CCc2cc(Br)cc(S(=O)(=O)CCC(=O)N3CCN(c4ccc(F)cc4)CC3)c21 1.54%
COc1ccc(-c2nnc(SCC(=O)Nc3cccc(C(F)(F)F)c3)s2)cc1 -2.99%
Cc1ccc(CN2CCC(CNC(=O)c3cnn(-c4ccccc4Cl)c3C3CCN(C(=O)OC(C)(C)C)CC3)CC2)cc1 -21.5%
COc1ccc(Cl)c2sc(NC(=O)c3ccc(S(=O)(=O)N4CCOCC4)cc3)nc12 -3.7%
CCc1ccc(NC(=O)Cn2c(=O)n(-c3ccc(Cl)c(Cl)c3)c(=O)c3c(C)c(C)sc32)cc1 1.52%
Cc1c(-c2nc(-c3ccccc3)no2)nnn1-c1ccc(F)c(Cl)c1 4.28%
COCCNC(=O)c1cnc2sc(N3CCCCC3)nn2c1=O 10.8%
Cc1ccc(Cn2c(SCc3ccc(C(=O)NC4CCCCC4)cc3)nc3ccncc32)cc1 5.44%
CN(C(=O)c1ccc2c(c1)N(Cc1cccc(Cl)c1)C(=O)c1ccccc1S2(=O)=O)C1CCCCC1 -2.84%
COc1ccc(NC(=O)COCc2cc(-c3ccc4c(c3)OCO4)on2)cc1 2.75%
O=c1c(-c2ccc(Cl)cc2)c(C(F)(F)F)oc2c(CN3CCCCC3)c(O)ccc12 26.6%
CCOC(=O)C1CCCCN1S(=O)(=O)c1csc(C(N)=O)c1 (stereo not drawn) -1.51%
CCn1cc(C(=O)NCc2ccccc2)c(=O)c2cc(S(=O)(=O)N3CCc4ccccc4C3)ccc21 -9.35%
O=C(c1ccc2c(c1)CCCC2)N1CCN(c2nc3c(F)cccc3s2)CC1 17.1%
Cc1ccccc1Nc1c(-c2ccc(Cl)s2)nc2cccc(C)n12 -3.8%
O=C(CSc1nc2c(c(=O)[nH]1)CCC2)Nc1ccccc1C(F)(F)F -1.41%
COc1ccc(S(=O)(=O)c2c(C)c(NS(=O)(=O)c3ccccc3)cc(C)c2O)cc1 6.71%
COc1ccc(Cn2cc(C(=O)c3ccc(C)cc3)c(=O)c3cc(OC)c(OC)cc32)cc1 -5.32%
COc1ccc(CC(=O)NCc2ccc3c(c2)CCN3C(=O)c2ccccc2)cc1OC -2.64%
CN(C)c1ccc(-n2c(CCC(=O)O)ccc2-c2ccccc2)cc1 -9.49%
COc1ccccc1N1CCN(C(CNC(=O)C(=O)NCc2ccc(C)cc2)c2cccnc2)CC1 (stereo not drawn) 4.49%
CC(C)(C)c1ccc(OCCn2cc(C(=O)c3ccco3)c3ccccc32)cc1 1.38%
CCc1cccc(NC(=O)C2CCCN(S(=O)(=O)c3cccs3)C2)c1 (stereo not drawn) -1.54%
CCOC(=O)C1=C(CN2CCCCC2)NC(=O)NC1c1cc(C)ccc1C (stereo not drawn) -1.51%
COc1ccc(-c2nc3cc(C)ccn3c2NC(=O)c2ccc(C)c(C)c2)cc1 0.923%
CC(C)CCn1c(=O)c2sccc2n2c(CCCC(=O)NC(C)C)nnc12 -15.7%
CCNC(=O)c1cnc2c(-c3ccccc3)c(C)nn2c1C -0.725%
CC(C)CC1N=C2c3ccccc3N=C(SCC(=O)NCCc3ccc(Cl)cc3)N2C1=O (stereo not drawn) 5.76%
CNC(=O)CN1C(=O)c2cccnc2Sc2ccccc21 7.94%
Cc1ccc(NS(=O)(=O)c2ccc3c(c2)CC(C)N3C(=O)C2CCC2)cc1Cl (stereo not drawn) 3.29%
CCOc1ccccc1NC(=O)c1c(NC(=O)C(C)Oc2ccc(Cl)cc2)sc2c1CCCCC2 (stereo not drawn) 1.85%
Cc1cccc(-c2nc3c(c(SCc4ccccc4Cl)n2)Cc2c(CO)cnc(C)c2O3)c1 6.65%
COc1cc(Cl)c(C)cc1NC(=O)c1cc2c(Cl)nc3ccc(C)cc3c2s1 -17.5%
COc1cccc(CNC(=O)CN(C)S(=O)(=O)c2ccc3[nH]c4c(c3c2)CCCC4)c1 -8.55%
Cc1cccc(OCC(=O)Nc2ccccc2OCc2cc(=O)n3ccccc3n2)c1 -3.85%
COc1ccc(-n2c(=O)c3c4c(sc3n(Cc3ccccc3Cl)c2=O)CCC4)c(OC)c1 -4.95%
COc1ccc(-c2cc(=O)c3c(O)cc(O)cc3o2)cc1O 2.89%
Cc1ccc(CN2CCc3nc(N4CCN(c5ccccc5F)CC4)ncc3C2)cc1C 5.6%
COc1cccc(-c2cc(C(F)(F)F)nc(NCCc3ccccc3)n2)c1 -0.615%
Cc1cccc(C)c1-n1ncc(C(=O)Nc2ccc3c(c2)OCO3)c1C1CCN(C(=O)OC(C)(C)C)CC1 -2.9%
CCOc1ccccc1CNC(=O)C1CCCN(c2ncnc3onc(-c4ccc(F)cc4)c23)C1 (stereo not drawn) -0.845%
O=C(CSc1nnc(-c2ccc(O)cc2)o1)c1ccc(Br)cc1 1.03%
COCCCNC(=O)C(=O)Nc1c2c(nn1-c1cccc(Cl)c1)CSC2 2.69%
CCOC(=O)c1ccc(NC(=O)N2CCOc3ccccc32)cc1 5.34%
Cc1ccccc1-c1nnc(CN2CCN(c3ccccn3)CC2)o1 -0.722%
Cc1cc(Br)ccc1NC(=O)C1CCN(S(=O)(=O)c2cccc3nsnc23)CC1 27.8%
CCCCCSc1nc2sc3c(c2c(=O)n1-c1ccccc1)CCN(C(C)=O)C3 -18.7%
COc1ccc(-c2oc3ncn4nc(COc5c(C)cccc5C)nc4c3c2-c2ccc(OC)cc2)cc1 6.59%
CCOc1ccc(CCNC(=O)c2cnc3sc(N4CCC(C)CC4)nn3c2=O)cc1 2.14%
COC(=O)c1c(-c2cccs2)csc1NC(=O)COc1c(C)ccc(C)c1C -4.25%
Cc1cccc(NC(=O)c2sc(-n3nc(C)c(Cc4ccc5c(c4)OCO5)c3C)nc2C)c1C -3.73%
Cc1ccc(Cn2c(SCc3ccc(C(=O)N4CCCCCC4)cc3)nc3ccncc32)cc1 -3.79%
Cc1ccc(NC(=O)CSc2ncc3c(n2)-c2ccc(Cl)cc2N(C)S3(=O)=O)cc1F 5.92%
COc1ccccc1NC(=O)c1sc2nc(N3CCOCC3)c3c(c2c1N)CC(C)(C)OC3 -11.6%
COc1ccc(-c2noc(CSc3nnc(C)n3-c3ccc(OC)cc3)n2)cc1 15.6%
Cn1nnnc1SCCCNCc1ccccc1OCc1ccccc1Cl -36.4%
COc1cc(OC)cc(N2C(=O)N(CC(=O)c3ccc(F)cc3)c3ccccc3S2(=O)=O)c1 -32.8%
COc1ccc(-c2noc(Cn3c(=O)c4ccccc4n(CC(=O)Nc4cccc(OC)c4)c3=O)n2)cc1 -4.59%
COc1ccc(CN2CCc3nc(SCC(=O)Nc4cc(C)cc(C)c4)[nH]c(=O)c3C2)cc1 3.03%
CCCOC(=O)CSc1ncnc2sc3c(c12)CCC(C)C3 (stereo not drawn) -2.39%
COc1cccc(NC(=O)N2CCN3CCCCC3C2)c1 (stereo not drawn) -24.3%
Cc1cccc(Cn2c(=O)n(CC3CCC(C(=O)N4CCOCC4)CC3)c(=O)c3sccc32)c1 (stereo not drawn) -1.46%
CCOC(=O)c1ccc(NC(=O)c2oc(=O)c3ccccc3c2-c2ccccc2)cc1 -2.94%
CCOC(=O)c1c(NC(=O)c2cc3nc(-c4ccc(OC)cc4)cc(C(F)(F)F)n3n2)sc2c1CCC(C)C2 (stereo not drawn) -5.41%
CCc1cccc(NC(=O)C(Cc2ccccc2)NS(=O)(=O)c2ccc3c(c2)oc(=O)n3C)c1 (stereo not drawn) -2.51%
COc1ccccc1-c1nc2c(c(SCC(=O)Nc3c(C)cc(C)cc3C)n1)Cc1c(CO)cnc(C)c1O2 2.72%
O=C(NCc1cccs1)c1ccc(Cn2c(SCc3cccc(F)c3)nc3cccnc32)cc1 -19.9%
CCCCOC(=O)c1ccc(NC(=O)Cn2nnc3sc4c(c3c2=O)CCCC4)cc1 1.86%
CCOc1ccc(-c2cc(C(=O)N3CCN(S(=O)(=O)c4cc(Cl)ccc4OC)CC3)[nH]n2)cc1 -4.53%
CCc1cccc(NC(=O)c2cc3c(=O)n(Cc4ccc(OC)cc4)ccc3nc2C)c1 -1.38%
Cc1ccc(N2C(=O)N(CC(=O)C(C)(C)C)c3ccccc3S2(=O)=O)cc1C -2.12%
CCOc1ccc(CCNC(=O)c2ccc(Nc3nc4ccccc4n4nnnc34)cc2)cc1OCC -27.8%

outcome, inactive:
Cc1nn(C)c2c1c(C(F)(F)F)cc(=O)n2C(C)C(=O)Nc1ccccc1F (stereo not drawn)
COc1ccc(S(=O)(=O)NCC(c2cccs2)S(=O)(=O)c2ccccc2)cc1OC (stereo not drawn)
CCOc1ccc(C(=O)c2cn(CC(=O)Nc3ccc(Cl)cc3)c3cc4c(cc3c2=O)OCO4)cc1
Cc1c(C(=O)N(Cc2ccccc2F)C2CCS(=O)(=O)C2)oc2ccccc12 (stereo not drawn)
COc1cc(/C=C/c2nc(C#N)c(N3CCN(C)CC3)o2)cc(OC)c1OC
CSc1cccc(NC(=O)C2CCN(c3nc4ccccc4[nH]3)CC2)c1
CCc1ccc(N2C(=O)CSC23C(=O)N(Cc2ccc(C)cc2)c2ccccc23)cc1 (stereo not drawn)
CCCC(CCC)C(=O)Nc1cc(-c2cn3cccnc3n2)ccc1OC
COc1cc(C(c2c(C)[nH][nH]c2=O)c2c(C)[nH][nH]c2=O)ccc1OC(=O)c1cccc(C)c1
COc1ccc(C2=NC(c3ccncc3)=Nc3ccc(Br)cc3N2)cc1
CCn1cc(C(=O)N2CCN(c3ccc(F)cc3)CC2)c(=O)c2cc(S(=O)(=O)N(C)C3CCCCC3)ccc21
O=C(NCc1ccccc1Cl)C1CCCN(C(=O)c2cnn(-c3ccccc3)c2-n2cccc2)C1 (stereo not drawn)
Cc1nc2c(C(=O)NCCc3ccc(Cl)cc3)c[nH]n2c(=O)c1Cc1ccc(Cl)cc1
COc1ccccc1C(=O)Nc1c(C(=O)N(C)Cc2ccccc2)sc2nc(C)c(Cl)c(C)c12
Cc1ccc2c(c1)-c1nc(-c3ccc4c(c3)NC(=O)CO4)cc(-c3ccc(F)cc3)c1CO2
CCOc1ccccc1NC(=O)N1CCc2cc(S(=O)(=O)N3CCC(C)CC3)ccc21
Cc1nn(C(=O)c2ccccc2F)c(C)c1S(=O)(=O)N1CCCCCC1
CNC(=O)Cn1cc(S(=O)(=O)Cc2ccccc2F)c2ccccc21
CCC(=O)N1CCc2cc(S(=O)(=O)CCC(=O)NCc3ccc(C)cc3)ccc21
CCCSc1nnc2c(n1)OC(c1sccc1C)Nc1ccccc1-2 (stereo not drawn)

Source: PubChem BioAssay AID1963576 (National Center for Advancing Translational Sciences (NCATS), 2024)
